{
  "source": "PubChem BioAssay AID1963576",
  "about": "(National Center for Advancing Translational Sciences (NCATS), 2024)",
  "note": "Hit rate of the full screen: of about 46,000 compounds, about 60 (0.1%) were called active. Not shown: some 3% with an inconclusive outcome. Calls come from the whole dose curve; as a rule, active = well fitted inhibition curve with a large enough effect; inconclusive = small, poorly fitted or top-dose-only effect; inactive = no such curve, though single readings can be large or run the other way. The list shows a part of the results.",
  "data": [
    {"assay": "Primary qHTS assay for Inhibitors of ovarian cancer metastasis using an organotypic tumor microenvironment (TME) model; note: nearly all actives have a fitted effect of over 65% in size;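 for activity change, negative = inhibition: plate controls were DMSO wells for no effect and tomatine positive control wells for full effect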.", "settings": "SKOV3ip1-GFP adhesion/invasion on 3D omental model, fluorescence; series mostly up to 45.8 µM; activity change, negative = inhibition: at the top concentration", "in_short": "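A 3D layer of primary human omental fibroblasts, mesothelial cells, fibronectin and collagen I, grown 48 hr, received SKOV3ip1-GFP cells in serum-free medium plus compounds at 0.36-46 umol/L. After 2 hr RT and 16 hr 37 C, fixed adherent GFP cells were counted; normalized to DMSO and tomatine.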", "values": [
      {"smiles": "O=C(NCCc1ccccc1)c1cc(-c2cccc(Cl)c2)on1", "activity change, negative = inhibition": "inactive: -2.82%"},
      {"smiles": "CCc1ccc(Nc2ncnc3sc4c(c23)CCCC4)cc1", "activity change, negative = inhibition": "inactive: -27.6%"},
      {"smiles": "CCc1ccc(NC(=O)c2cc(S(=O)(=O)N3CCCCC3)c[nH]2)cc1", "activity change, negative = inhibition": "inactive: -1.02%"},
      {"smiles": "COc1cc(NC(=O)c2cc3nc(-c4ccc(C)cc4)cc(C(F)(F)F)n3n2)cc(OC)c1OC", "activity change, negative = inhibition": "inactive: -3.04%"},
      {"smiles": "COc1ccc(C2c3c(n(C)c4ccccc34)C(=O)N2CC(=O)Nc2ccccc2Cl)cc1", "note": "(stereo not drawn)", "activity change, negative = inhibition": "inactive: 9.98%"},
      {"smiles": "O=C(c1ccc(Nc2nc3ccccc3n3nnnc23)cc1)N1CCN(c2ccc(F)cc2)CC1", "activity change, negative = inhibition": "inactive: -5.8%"},
      {"smiles": "O=C(Nc1cc(-c2nc3cc(Cl)ccc3o2)ccc1Cl)c1cccc2ccccc12", "activity change, negative = inhibition": "inactive: 5.08%"},
      {"smiles": "COc1ccc(CCNC(=O)c2c[nH]n3c(=O)c(Cc4ccccc4Cl)c(C)nc23)cc1OC", "activity change, negative = inhibition": "inactive: 11.9%"},
      {"smiles": "CCn1c2c(c(=O)n3ncc(C(=O)Nc4ccc(OC(F)(F)F)cc4)c13)CN(Cc1ccc(OC)cc1)CC2", "activity change, negative = inhibition": "inactive: -0.276%"},
      {"smiles": "Fc1ccc(CNc2ncnc3ccc(F)cc23)cc1", "activity change, negative = inhibition": "inactive: 2.01%"},
      {"smiles": "COc1ccc(CCNC(=O)c2cnc3sc(N4CCOCC4)nn3c2=O)cc1OC", "activity change, negative = inhibition": "inactive: -6.57%"},
      {"smiles": "CC(=O)c1cccc(NC(=O)Cn2c(=O)oc3cc(S(=O)(=O)NCc4ccccc4)ccc32)c1", "activity change, negative = inhibition": "inactive: 18.2%"},
      {"smiles": "Cc1ccc(CNC(=O)c2nnn(Cc3ccc(F)cc3)c2N)cc1", "activity change, negative = inhibition": "inactive: 0.347%"},
      {"smiles": "COc1ccc(OCc2ccc(-c3nc(C#N)c(N4CCC(C(N)=O)CC4)o3)o2)cc1", "activity change, negative = inhibition": "inactive: -0.551%"},
      {"smiles": "O=S(=O)(Nc1ccc(F)cc1F)c1ccc(Br)s1", "activity change, negative = inhibition": "inactive: -2.12%"},
      {"smiles": "O=C(NCc1cccs1)c1ccc(CSc2nc3cccnc3n2Cc2ccc(F)cc2)cc1", "activity change, negative = inhibition": "inactive: 8.57%"},
      {"smiles": "CC1CCN(c2ccc(-c3cccc(NS(=O)(=O)c4cccs4)c3)nn2)CC1", "outcome": "inactive"},
      {"smiles": "Cc1ccc2c(c1)cc1c(=O)n(CC(=O)NC(C)CCc3ccccc3)nc(C)n12", "note": "(stereo not drawn)", "outcome": "inactive"},
      {"smiles": "CC1CCn2c(nc3cc(C(=O)NCc4ccc(F)cc4)ccc32)C1", "note": "(stereo not drawn)", "activity change, negative = inhibition": "inactive: -6.86%"},
      {"smiles": "Cc1cc(C)cc(NC(=O)C2CCN(C(=O)c3cnn(-c4ccccc4)c3-n3cccc3)CC2)c1", "outcome": "inactive"},
      {"smiles": "CCOc1nc(NC(=O)NS(=O)(=O)Oc2cccc(Cl)c2)nc(-c2ccccc2)n1", "activity change, negative = inhibition": "inactive: -13.7%"},
      {"smiles": "COc1ccccc1CNc1ccc(-c2nc(-c3ccccc3C)no2)cc1[N+](=O)[O-]", "activity change, negative = inhibition": "inactive: -10.8%"},
      {"smiles": "CCc1ccccc1NC(=O)CSc1nc2n[nH]c(C)c2c(=N)n1-c1cccc(C)c1", "activity change, negative = inhibition": "inactive: 3.2%"},
      {"smiles": "COc1ccc(-c2nn(-c3ccc(F)cc3)c3c2cnc2cc4c(cc23)OCO4)cc1", "activity change, negative = inhibition": "inactive: -4.67%"},
      {"smiles": "Cn1c2c(c(=O)n(C)c1=O)C(c1ccccc1[N+](=O)[O-])CC(=O)N2", "note": "(stereo not drawn)", "activity change, negative = inhibition": "inactive: -18.7%"},
      {"smiles": "CCCCC(=O)Nc1nnc(SCc2cc(=O)n3cc(C)ccc3n2)s1", "outcome": "inactive"},
      {"smiles": "CCOC(=O)c1nn2c(C(F)(F)F)cc(-c3ccc(C)cc3)nc2c1Cl", "activity change, negative = inhibition": "inactive: -0.336%"},
      {"smiles": "O=C(Nc1ccc(F)c(F)c1)c1cc(S(=O)(=O)NCc2ccc3c(c2)OCO3)ccc1F", "outcome": "inactive"},
      {"smiles": "Cc1ccn2c(Nc3ccc4c(c3)OCO4)c(-c3ccc(Cl)cc3)nc2c1", "activity change, negative = inhibition": "inactive: 0.109%"},
      {"smiles": "COc1cccc(CNC(=O)CN2CCCN(Cc3ccccc3)S2(=O)=O)c1", "outcome": "inactive"},
      {"smiles": "CC(C)(C)NCC(O)c1ccc(O)c(CO)c1", "note": "(stereo not drawn)", "activity change, negative = inhibition": "inactive: -7.1%"},
      {"smiles": "COc1ccc(C2=NC3(CCCCCC3)N(CC(=O)Nc3cccc(Cl)c3)C2=O)cc1", "activity change, negative = inhibition": "inactive: -5.47%"},
      {"smiles": "COc1ccc(-c2c(C#N)c(SCC(=O)Nc3ccc(C)cc3)nc(C)c2C(=O)Nc2ccccc2)cc1", "activity change, negative = inhibition": "inactive: 5.92%"},
      {"smiles": "Cc1ccc(CNC(=O)CSc2nc(=O)n(Cc3ccco3)c3c2CCC3)cc1", "activity change, negative = inhibition": "inactive: 2.23%"},
      {"smiles": "CCOc1ccc(-c2nnc(SCC(=O)NC(C)CC)nc2-c2ccc(OCC)c(OC)c2)cc1OC", "note": "(stereo not drawn)", "activity change, negative = inhibition": "inactive: 4.03%"},
      {"smiles": "CCOc1ccc(-n2nc3ccc(NC(=O)c4cccc(F)c4)cc3n2)cc1", "activity change, negative = inhibition": "inactive: 0.873%"},
      {"smiles": "COc1ccc(Cl)cc1S(=O)(=O)N1CCN(CC(=O)Nc2ccccc2C(F)(F)F)CC1", "activity change, negative = inhibition": "inactive: -7.48%"},
      {"smiles": "CCSc1nc2c([nH]c3ccccc32)c(=O)n1-c1cccc(OC)c1", "outcome": "inactive"},
      {"smiles": "COc1cccc(NC(=O)Cn2c(=O)ccc3cc(S(=O)(=O)N4CCC(C)CC4)ccc32)c1", "activity change, negative = inhibition": "inactive: 14.2%"},
      {"smiles": "CCCCc1nn2c(=O)cc(COC(=O)c3ccco3)nc2s1", "activity change, negative = inhibition": "inactive: 88.5%"},
      {"smiles": "COc1ccc(-c2nc(CCNC(=O)c3c(F)cccc3Cl)cs2)cc1", "outcome": "inactive"},
      {"smiles": "CC1CCN(C(=O)Cn2cc(SCC(=O)Nc3ccccc3C(F)(F)F)c3ccccc32)CC1", "activity change, negative = inhibition": "inactive: -4.78%"},
      {"smiles": "COc1ccc(-c2nc3ccccc3o2)cc1NC(=O)c1ccc(-c2ccc(Br)cc2)o1", "activity change, negative = inhibition": "inactive: 3.45%"},
      {"smiles": "CC(=O)Nc1nonc1-c1nnc(SCC(=O)Nc2cccc(C)c2C)n1-c1ccccc1", "activity change, negative = inhibition": "inactive: -9.18%"},
      {"smiles": "COc1cc(C(=O)Nc2cccc(OCc3cc(=O)n4cc(C)sc4n3)c2)cc(OC)c1OC", "activity change, negative = inhibition": "inactive: -24.9%"},
      {"smiles": "Cc1nn(C)c(C)c1CCNC(=O)Nc1cccc(Cl)c1C", "activity change, negative = inhibition": "inactive: 10.5%"},
      {"smiles": "COc1ccc(Cn2cc(C(=O)c3ccc(F)cc3)c(=O)c3cc4c(cc32)OCCO4)cc1", "activity change, negative = inhibition": "inactive: -14.3%"},
      {"smiles": "CCOc1ccc(-n2c(=O)c3c(C)c(C)sc3n(CC(=O)Nc3ccc(CC)cc3)c2=O)cc1", "activity change, negative = inhibition": "inactive: -4.78%"}
    ]}
  ]
}
